Where two headings read alike, the source gives them in different places.

Results on five compounds are retold here after patent US7335484B2, “Retinoid metabolizing protein” (Queen's University at Kingston, priority 1996, dated 2008).

Series [1] concerns cellular retinoic acid binding protein (CRABP). The note with it: cited from earlier work.
Series [2] has as its target T1, retinoic acid receptor-β (RAR-β) (Homo sapiens, UniProt P10826).
T1 sequence (P10826 1-455): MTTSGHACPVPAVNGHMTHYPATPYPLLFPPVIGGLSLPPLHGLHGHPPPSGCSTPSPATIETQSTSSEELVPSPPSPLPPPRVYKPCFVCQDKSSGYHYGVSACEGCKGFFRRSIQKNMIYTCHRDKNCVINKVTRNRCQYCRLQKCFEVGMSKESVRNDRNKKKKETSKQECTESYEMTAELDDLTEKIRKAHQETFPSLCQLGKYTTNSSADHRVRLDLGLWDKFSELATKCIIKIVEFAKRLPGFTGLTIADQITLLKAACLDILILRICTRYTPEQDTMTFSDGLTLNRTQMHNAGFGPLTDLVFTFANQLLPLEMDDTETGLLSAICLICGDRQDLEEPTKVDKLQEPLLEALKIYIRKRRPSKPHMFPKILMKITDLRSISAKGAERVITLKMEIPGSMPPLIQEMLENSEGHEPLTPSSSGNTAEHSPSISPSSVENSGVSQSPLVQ
The conditions noted are these: cited from earlier work.

The target of series [3] is T2, RAR-γ (Homo sapiens, UniProt P13631).
T2 sequence (P13631 1-454): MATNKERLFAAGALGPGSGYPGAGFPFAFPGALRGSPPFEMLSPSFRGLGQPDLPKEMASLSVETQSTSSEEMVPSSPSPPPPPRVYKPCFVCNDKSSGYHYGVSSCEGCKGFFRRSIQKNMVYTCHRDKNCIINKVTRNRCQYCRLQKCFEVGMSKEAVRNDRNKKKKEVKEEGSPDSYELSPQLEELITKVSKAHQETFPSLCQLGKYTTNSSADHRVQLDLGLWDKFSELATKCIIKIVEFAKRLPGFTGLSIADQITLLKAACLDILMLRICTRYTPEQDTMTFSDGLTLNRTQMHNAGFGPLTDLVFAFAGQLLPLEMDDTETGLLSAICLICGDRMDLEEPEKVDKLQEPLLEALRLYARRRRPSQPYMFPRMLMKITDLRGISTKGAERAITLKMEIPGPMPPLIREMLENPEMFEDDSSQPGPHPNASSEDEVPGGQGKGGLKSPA
The note with it: cited from earlier work.

The conditions of series [4]: in vivo; cited from earlier work.
In series [5] the test system is NB4 cells. The conditions noted are these: cited from earlier work.
Series [6] relates to P450RAI message in MCF7 cells. The series is described as follows: Inhibition of P450RAI induction by 4-HPR, northern blot in MCF7 cells. The series is classed as cell-based, human. The method, then:
Experiments to determine the effect of 4-HPR on the induction of P450RAI were thus carried out. FIG. 17 illustrates the ability of the synthetic retinoid, 4-HPR to inhibit the induction of P450RAI by RA. MCF7 cells were grown in culture in minimal essential medium (MEM) (Gibco) supplemented with 10% fetal calf serum, insulin (0.01 mg/mL), MEM non-essential amino acids (as directed by the manufacturer—Gibco), sodium pyruvate (500 nM), L-glutamine (2 mM) gentamycin (10 μg/mL), penicillin (5 μg/mL), streptomycin (5 μg/mL), and fungizone (200 ng/mL). MCF7 cells cultured in parallel were treated for 12 hours with: 10 μM 4HPR; 1 μM 4HPR; 1 μM RA; 1 μM RA and 10 μM 4-HPR; or 1 μM RA and 1 μM 4-HPR. At the end of the 12 hour treatment, total RNA was extracted from the cells using TRIzol reagent (as outlined by the manufacturer—Gibco). P450RAI message in the total RNA preparations was analyzed by northern blot hybridization. The blot was reprobed with a probe corresponding to the GAPDH cDNA to control for equivalent loading of RNA in each lane of the blot.

Series [7] relates to P450RAI mRNA in MCF7 cells. The conditions noted are these: for P450RAI message level: 1 μM all-trans retinoic acid.
Series [8] concerns hP450RAI mRNA. The series is described as follows: Inducibility of hP450RAI mRNA by RA in human cell lines, northern blot. The series is classed as cell-based. The method, then:
The clone sequence (SEQ ID NO:11) was prepared as a ^32[P]-dATP labeled probe to study the inducibility of hP450RAI by RA in several cell lines: HEK293; EL-E; HL-60; MCF10A; LC-T; SK-LC6; MCF7; U937; HepG2; NT2 (See FIGS. 5 to 7). […] The SK-LC6 human lung (epithelial) line appeared to constitutively express corresponding mRNA.
The ^32[P]-dATP labeled probe was also used to study hP450RAI mRNA expression in a human acute promyelocytic leukemia cell line. Experiments were carried out using the NB4 cell line, isolated from a human acute promyelocytic leukemia patient, and three retinoic acid resistant cell lines were independently derived from NB4.

Series [9] has as its system zP450RAI transcripts. The series is described as follows: Northern blot of zP450RAI transcripts in regenerating fin tissue of RA-treated fish. The note with it: fish exposed to 10^−6 M RA in tank water for 24 hours. The series is classed as in vivo, Danio rerio. As to the method:
D. rerio were kept at 28.5° C. in 40 L tanks with 25-30 fish per tank on a 14 hour light-10 hour dark cycle. Tap water was conditioned by the addition of 10 ml of Water Conditioner (Sera Aqutan) and 10 ml of 250 g/L Aquarium Salt (Nutra Fin) per 20 L. 2-3 L of water was changed daily. Amputation of fins was carried out following anaesthetization of the fish in a solution of 0.2% ethyl-m-aminobenzoate methanesulfonic acid (ICN) in conditioned water. Retinoic acid treatment was performed by adding all-trans RA, to a final concentration of 10^−6 M, directly into the tank water two days following amputation. Both control- and RA-treated fish were kept in the dark during the experiments.
Fish were allowed to regenerate their caudal fins for 72 hours. At 48 hours 10^−6M all-trans RA in DMSO vehicle or DMSO alone was added directly to the tank water. mRNA was prepared using the Micro Fast-Track mRNA isolation kit (Invitrogen, Calif.) according to the manufacturer's directions. 3.0-5.0 μg poly A^+ RNA was electrophoresed, blotted and probed using a previously described method [White, 1994] with the full length zP450RAI cDNA obtained as described below. […] See lanes 2 and 3 of FIG. 3(a).

The target of series [10] is T3, hP450RAI (Homo sapiens, UniProt O43174, E104D/H105D/L421A/M420S).
T3 construct: expressed in transfected cells; host or cells: COS-1, DEAE-dextran transient transfection with hP450RAI-pSG5, together with pE-AR and pE-ADX
T3 sequence (O43174 1-497 E104D/H105D/M420S/L421A): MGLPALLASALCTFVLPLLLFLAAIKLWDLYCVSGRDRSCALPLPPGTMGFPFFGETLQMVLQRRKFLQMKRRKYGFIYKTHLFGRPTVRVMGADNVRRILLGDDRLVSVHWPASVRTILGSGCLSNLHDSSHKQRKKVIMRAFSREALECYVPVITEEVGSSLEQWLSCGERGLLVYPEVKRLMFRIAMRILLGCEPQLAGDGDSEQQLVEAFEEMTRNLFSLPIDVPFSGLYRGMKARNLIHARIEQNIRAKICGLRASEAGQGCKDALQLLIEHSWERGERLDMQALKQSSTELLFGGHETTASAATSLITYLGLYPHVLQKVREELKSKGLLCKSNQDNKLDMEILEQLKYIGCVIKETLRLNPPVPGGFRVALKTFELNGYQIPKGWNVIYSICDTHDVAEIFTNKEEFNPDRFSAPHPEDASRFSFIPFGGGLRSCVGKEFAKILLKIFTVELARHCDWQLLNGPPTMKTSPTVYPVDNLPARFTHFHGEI
The series is described as follows: Metabolism of RA by hP450RAI transfected COS-1 cells. Type of series: in vitro ADME. The note with it: COS-1 cells transfected with hP450RAI-pSG5, [11,12-3H]all-trans retinoic acid. The method, then:
COS-1 cells were subcultured 20 hours prior to transfection which was carried out according to the standard DEAE-dextran method [Sambrook, 1989; Maniatis, 1982]. Cells were transfected with pE-AR (adrenodoxin expression vector, 1 μg/P100 plate) and pE-ADX (adrenodoxin reductase expression vector, 1 μg/P100 plate) together with 3 μg per plate of either pSG5 (control) or hP450RAI-pSG5 (experimental). [11,12-^3H]all-trans retinoic acid (60,000 cpm per plate) was added 24 hours after transfection. […] Total amounts of 4-oxo-RA and 4-OH-RA produced in the transfected cells in comparison to amounts produced in the control cells are shown in FIGS. 11(a) and (b), respectively. Overall, greater amounts of aqueous soluble metabolites were produced in the transfected cells (FIG. 11(c)) and greater amounts of unmetabolized RA were found in control cells (FIG. 11(d)).

For series [11], the system named is mP450RAI promoter. The series can be described thus: mP450RAI promoter luciferase reporter in HepG2 cells. Type of series: cell-based, mouse. The note with it: 10^−6 M RA, cotransfected RXRα and RARγ, both orientations of the promoter. Background: Reporter assays use an easily measured gene product as a stand-in for the process of interest.

For the compound `CC1=C(/C=C/C(C)=C/C=C/C(C)=C/C(=O)O)C(C)(C)CCC1=O` [4-oxo-RA, 4-oxo-retinoic acid], the “binding affinity to CRABP” value in [1] is reported as “affinity slightly lower than that of all-trans RA”. The “binding affinity to RAR-β” value in series [2] is reported as “affinity comparable to all-trans RA”. For the same compound, the “binding to RAR-γ” value in [3] is reported as “poorly”.
Turning to `CC(=O)N1CCN(c2ccc(OCC3COC(Cn4ccnc4)(c4ccc(Cl)cc4Cl)O3)cc2)CC1` (stereo not shown) [ketoconazole], the “effect on RA pharmacokinetics” value in series [4] is given as “shown to modulate RA pharmacokinetics in vivo”.
With `CC1=C(/C=C/C(C)=C/C=C/C(C)=C/C(=O)Nc2ccc(O)cc2)C(C)(C)CCC1` [4-HPR, 4-hydroxyphenylretinamide], in series [5], the “effect on RA-induced RA catabolism” value is “inhibits RA-induced RA catabolism”. The “suppression of RA induction of P450RAI message” value in [6] (1 μM RA in the presence of 10 μM 4-HPR, 12 hours) was “noticeable suppression of P450RAI induction”. In addition, the “induction of P450RAI message by 4-HPR treatment alone” value in series [6] (12 hours, 10 μM or 1 μM 4HPR alone) is recorded as “does not induce the P450RAI message”.
With `CC1(C)CCC(C)(C)c2cc(C(=O)Nc3ccc(C(=O)O)cc3)ccc21` [Am580], in series [7], the “P450RAI message level between 24 and 48 hours” value is on record as “remains high”; the “metabolism in MCF7 cells, concluded from persistent P450RAI message” value is on record as “resilient to metabolism”. In series [7] (compared with retinoic acid), the “induction of P450RAI message” value is reported as “levels comparable to those observed following treatment with retinoic acid”.
Consider `CC1=C(/C=C/C(C)=C/C=C/C(C)=C/C(=O)O)C(C)(C)CCC1` [RA, all-trans retinoic acid], for which the “hP450RAI mRNA expression in response to RA” value in [8] (EL-E, HL-60 and MCF10A cell lines, 10^−6M RA) is given as “no expression in the absence or presence of RA”; in series [8] (HEK293, LC-T, HepG2, NT2 and U937 cell lines, 10^−6M RA), “some increase in expression”; in series [8] (MCF7 (human breast carcinoma) cell line, 10^−6M RA) it was “large dependence on exposure to RA”; in [8] (normal NB4 cell line, 10^−6M RA), “expressed hP450RAI mRNA”; in series [8] (three retinoic acid resistant cell lines derived from NB4, 10^−6M RA) it was “expression appeared to be absent”. The “induction of P450RAI message” value in [6] (1 μM RA, 12 hours of incubation) is recorded as “marked induction of P450RAI message”. Also, the “zP450RAI transcripts in regenerate tissue” value in series [9] is recorded as “very noticeably present”. Moreover, the “conversion of RA into metabolites” value in [10] is “promoted conversion of RA into 4-OH-RA and 4-oxo-RA”. Moreover, the luciferase activity entry in [11] is reported as “enhanced luciferase activity”. In addition, the “P450RAI message level between 24 and 48 hours” value in series [7] is “declined sharply”. Further, the P450RAI message level entry is listed as “high levels of P450RAI message” in series [7] (after 3 hours) and “the message declines sharply” in [7] (following 12 hours of exposure).
